Reference: the supplement of paper PMC7125110
± gives the standard error. Variants at the background level are over-represented here.

B1: glmS ribozyme (parent)
chain: AUAAAAGCGCCAGAACUACAGAAAUGUAGUUGACGAGGAGGAGGUUUAUCGAAUUUUCGGCGGAUGCCUCCAAA

Tests used:
Conditions in all cases: with glucosamine-6-phosphate
[1] = variants of: B1; experiment: self-cleavage kobs at 640 uM GlcN6P; higher = faster cleavage; RNA array
In short: (§1)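 Tiles of sequenced MiSeq chips were imaged over ~14 h at 37 °C. On them, barcoded ribozyme variants had been transcribed in situ by E. coli RNA polymerase and were tracked via a hybridised Cy3 probe while glucosamine-6-phosphate (40 μM to 10 mM) in HEPES/KCl/Mg(OAc)2 buffer flowed in. Per-tile medians, normalised to baseline and to non-cleaving reference variants, were fit to one- or two-exponential decays for kobs, and weighted Michaelis–Menten fits gave kcat and KM.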

[2] = variants of: B1; experiment: self-cleavage kobs at 160 uM GlcN6P; higher = faster cleavage; RNA array
In short: as §1

[3] = variants of: B1; experiment: self-cleavage kobs at 2500 uM GlcN6P; higher = faster cleavage; RNA array
In short: as §1

[4] = variants of: B1; experiment: self-cleavage kobs at 10000 uM GlcN6P; higher = faster cleavage; RNA array
In short: as §1

Variant | self-cleavage kobs at 640 uM GlcN6P [1] [s⁻¹] | self-cleavage kobs at 160 uM GlcN6P [2] [s⁻¹] | self-cleavage kobs at 2500 uM GlcN6P [3] [s⁻¹] | self-cleavage kobs at 10000 uM GlcN6P [4] [s⁻¹]
G7U C8G G59C | < 1e-05 | < 1e-05 | < 1e-05 | 
G7U C8U G40U G62C | < 1e-05 |  |  | 
G7U C10G C11A U47A U49A A53U G62A | < 1e-05 |  |  | < 1e-05
G7U C10U | < 1e-05 |  | < 1e-05 | 
G7U C10U A33C | < 1e-05 |  |  | 
G7U C11G U31C | < 1e-05 |  | < 1e-05 | 
G7U C61U C68G | 0.00114 ± 0.00049 |  |  | 
G7U C70A | 0.000596 ± 0.00023 |  |  | 
G7U G9U U30G | < 1e-05 |  | < 1e-05 | 
G7U G9U U47C U55G G62C | < 1e-05 |  |  | 
G7U G13C | < 1e-05 |  | < 1e-05 | < 1e-05
G7U G13U A14U A48G U54A | < 1e-05 | < 1e-05 | < 1e-05 | 
G7U G29U | < 1e-05 | < 1e-05 |  | 
G7U G32C G38C A42U C50U | < 1e-05 |  |  | 
G7U G35A G37C U46G U47A C70G | < 1e-05 | < 1e-05 | < 1e-05 | 
G7U G35C C71U | < 1e-05 | < 1e-05 |  | 
G7U G35U A52C C68A | < 1e-05 |  | < 1e-05 | 
G7U G35U U45G | < 1e-05 | < 1e-05 |  | 
G7U G38C U47C U49A | < 1e-05 |  |  | 
G7U G40C U49A | < 1e-05 |  |  | 
G7U G40U | < 1e-05 | < 1e-05 | < 1e-05 | < 1e-05
G7U G41A G43U | < 1e-05 |  | < 1e-05 | 
G7U G43U C67G | < 1e-05 |  |  | 

Variant | self-cleavage kobs at 640 uM GlcN6P [1] [s⁻¹] | self-cleavage kobs at 160 uM GlcN6P [2] [s⁻¹] | self-cleavage kobs at 2500 uM GlcN6P [3] [s⁻¹] | self-cleavage kobs at 10000 uM GlcN6P [4] [s⁻¹]
G7U G43U C68U | < 1e-05 | < 1e-05 | < 1e-05 | < 1e-05
G7U G51U | < 1e-05 | < 1e-05 | < 1e-05 | < 1e-05
G7U G59A | < 1e-05 | < 1e-05 | < 1e-05 | < 1e-05
G7U G62A C67A | < 1e-05 | < 1e-05 | < 1e-05 | 
G7U G63C | < 1e-05 | < 1e-05 | < 1e-05 | 
G7U U30C G32A G41C U54C G60U | < 1e-05 |  |  | 
G7U U49G | < 1e-05 | < 1e-05 | < 1e-05 | < 1e-05
G7U U54G | < 1e-05 | < 1e-05 | < 1e-05 | < 1e-05
G7U U55A | < 1e-05 | < 1e-05 |  | 
G7U U57C C71U | < 1e-05 |  | < 1e-05 | 
C8A A12C | < 1e-05 | < 1e-05 | < 1e-05 | < 1e-05
C8A A12C G44U | < 1e-05 | < 1e-05 | < 1e-05 | 
C8A A14C C34G A39C | < 1e-05 |  | < 1e-05 | < 1e-05
C8A A14G G29A A36U | < 1e-05 |  | < 1e-05 | 
C8A A15U G63C | < 1e-05 | < 1e-05 |  | 
C8A A33C C58U | < 1e-05 |  | < 1e-05 | 
C8A A33U G35A | < 1e-05 | < 1e-05 | < 1e-05 | 
C8A A33U G51A | < 1e-05 | < 1e-05 |  | 
C8A A52G | < 1e-05 |  | < 1e-05 | 
C8A A53G C58A | < 1e-05 |  | < 1e-05 | 
C8A A53U C68U | < 1e-05 |  |  | 
C8A A53U U55G | < 1e-05 | < 1e-05 |  | 
C8A A64C | < 1e-05 |  | < 1e-05 | 

Variant | self-cleavage kobs at 640 uM GlcN6P [1] [s⁻¹] | self-cleavage kobs at 160 uM GlcN6P [2] [s⁻¹] | self-cleavage kobs at 2500 uM GlcN6P [3] [s⁻¹] | self-cleavage kobs at 10000 uM GlcN6P [4] [s⁻¹]
C8A C10A C58U | < 1e-05 |  |  | 
C8A C10U U55C A64U | < 1e-05 | < 1e-05 | < 1e-05 | 
C8A C11A A39U | < 1e-05 |  | < 1e-05 | 
C8A C16A G41C U49A U65A C70G | < 1e-05 |  | < 1e-05 | 
C8A C50U | < 1e-05 | < 1e-05 | < 1e-05 | < 1e-05
C8A G9C G37C | < 1e-05 |  |  | 
C8A G9C U30G G38A | < 1e-05 |  |  | 
C8A G13C C16G A33U | < 1e-05 |  |  | 
C8A G13U A15G A33C | < 1e-05 | < 1e-05 | < 1e-05 | 
C8A G21U A39G | < 1e-05 |  |  | 
C8A G26U A42U | < 1e-05 |  |  | 
C8A G29C G38U G66C | < 1e-05 |  | < 1e-05 | 
C8A G32C A33C G38C G51A U54C | < 1e-05 |  |  | 
C8A G35A G51A C58G A64C | < 1e-05 | < 1e-05 | < 1e-05 | 
C8A G41U G60U C61U | < 1e-05 |  |  | 
C8A G43C C61A | < 1e-05 |  |  | 
C8A G44A A48G U49G G60U | < 1e-05 |  |  | 
C8A U30C G51U | < 1e-05 |  |  | 
C8A U30G C34G | < 1e-05 |  |  | 
C8A U54C | < 1e-05 | < 1e-05 | < 1e-05 | < 1e-05
C8A U56G | < 1e-05 | < 1e-05 | < 1e-05 | < 1e-05
C8G A12G G43C U57G A64U | < 1e-05 |  | < 1e-05 | 
C8G A14C G32C G41A G62U | < 1e-05 |  | < 1e-05 | 

Variant | self-cleavage kobs at 640 uM GlcN6P [1] [s⁻¹] | self-cleavage kobs at 160 uM GlcN6P [2] [s⁻¹] | self-cleavage kobs at 2500 uM GlcN6P [3] [s⁻¹] | self-cleavage kobs at 10000 uM GlcN6P [4] [s⁻¹]
C8G A14C G63A | < 1e-05 |  | < 1e-05 | 
C8G A14G A15U G41C U47G U56A | < 1e-05 | < 1e-05 | < 1e-05 | 
C8G A14G A33U A53G | < 1e-05 |  |  | 
C8G A14U G59C C67U | < 1e-05 |  |  | < 1e-05
C8G A14U U49G A53U C61U | < 1e-05 |  |  | 
C8G A15G C16U U45G U49A | < 1e-05 |  |  | 
C8G A15G G60A | < 1e-05 | < 1e-05 |  | 
C8G A33C A48G | < 1e-05 |  | < 1e-05 | 
C8G A42G U55C U69G | < 1e-05 |  | < 1e-05 | 
C8G A53C | < 1e-05 | < 1e-05 | < 1e-05 | < 1e-05
C8G A53G G62A | < 1e-05 |  |  | 
C8G A64G U65G C67A | < 1e-05 |  | < 1e-05 | 
C8G C10G G41C U46G U55G | < 1e-05 |  |  | 
C8G C10U C11U C16G G41C C68U | < 1e-05 | < 1e-05 | < 1e-05 | 
C8G C11A C16U U55C G59U | < 1e-05 |  | < 1e-05 | 
C8G C11A C71U | < 1e-05 |  |  | 
C8G C11G G37C | < 1e-05 |  | < 1e-05 | 
C8G C11U A52U G62A G63U | < 1e-05 | < 1e-05 |  | 
C8G C11U A53G U55A C67U C71U | < 1e-05 |  | < 1e-05 | 
C8G C11U G41U C61U | < 1e-05 |  |  | 
C8G C16A G63U C67U | < 1e-05 |  | < 1e-05 | 
C8G C34U | < 1e-05 | < 1e-05 |  | < 1e-05
C8G C50U A52U U54G G63U C70U | < 1e-05 |  |  | 

Variant | self-cleavage kobs at 640 uM GlcN6P [1] [s⁻¹] | self-cleavage kobs at 160 uM GlcN6P [2] [s⁻¹] | self-cleavage kobs at 2500 uM GlcN6P [3] [s⁻¹] | self-cleavage kobs at 10000 uM GlcN6P [4] [s⁻¹]
C8G G9C | < 1e-05 |  | < 1e-05 | 
C8G G9C A39C | < 1e-05 |  | < 1e-05 | 
C8G G9U A48C G59U | < 1e-05 |  |  | 
C8G G13A U45G | < 1e-05 |  | < 1e-05 | 
C8G G13U C16A G37A | < 1e-05 |  |  | 
C8G G32A C61A | < 1e-05 |  | < 1e-05 | 
C8G G32A G40U | < 1e-05 | < 1e-05 |  | 
C8G G32C C67A | < 1e-05 | < 1e-05 | < 1e-05 | 
C8G G32U G44U | < 1e-05 | < 1e-05 | < 1e-05 | 
C8G G32U U47G C67G C68G | 0.000105 ± 3.3e-05 |  |  | 
C8G G35C | < 1e-05 | < 1e-05 | < 1e-05 | < 1e-05
C8G G35U G66A | < 1e-05 | < 1e-05 |  | 
C8G G38U | < 1e-05 | < 1e-05 | < 1e-05 | 
C8G G40U G51C U65C G66A | < 1e-05 |  | < 1e-05 | 
C8G G43A G60C | < 1e-05 |  | < 1e-05 | < 1e-05
C8G G43C G44A | < 1e-05 |  |  | 
C8G G59A | < 1e-05 | < 1e-05 | < 1e-05 | 
C8G G59U G66U | < 1e-05 |  |  | 
C8G U30A G63A | < 1e-05 | < 1e-05 | < 1e-05 | 
C8G U31C A36C U55G | < 1e-05 |  |  | 
C8G U45G G51C | < 1e-05 | < 1e-05 | < 1e-05 | 
C8G U46A C68G | < 1e-05 |  |  | < 1e-05
